In the supplement of paper PMC12217912:
Some of the results follow. Sequences were assembled here from the parent chain. Values near 0.05 are background.

B1: TEV protease; numbered along this chain (parent)
chain: MGESLFKGPRDYNPISSSICHLTNESDGHTTSLYGIGFGPFIITNKHLFRRNNGTLVVQSLHGVFKVKDTTTLQQHLVDGRDMIIIRMPKDFPPFPQKLKFREPQREERICLVTTNFQTKSMSSMVSDTSCTFPSGDGIFWKHWIQTKDGQCGSPLVSTRDGFIVGIHSASNFTNTNNYFTSVPKNFMELLTNQEAQQWVSGWRLNADSVLWGGHKVFMVKPEEPFQPVKEATQL

Variants of: B1
Assay: raw area under fraction-flipped curve 0-4 h after induction (AUC4h, not background-subtracted), DNA-recorder readout of cleavage of the substrate (dimensionless); higher = more cleavage of the substrate by the protease variant
Details: temperature: 34 °C; time window: 0-4 h after rhamnose induction
Method: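 In vivo DNA recorder in E. coli TOP10(DE3) ΔrhaA at 34 °C. Each TEVp single-site mutant (parent TEVp 0) is paired with a single-site variant of the 7-mer TEVs (canonical ENLYFQ|S). The substrate sits between flexible linkers in a Bxb1-sfGFP-TEVs-SsrA fusion, so cleavage stabilises Bxb1 and speeds flipping of a recombination array, read by NGS. The value is the raw area under the fraction-flipped curve over 0-4 h after rhamnose induction (AUC4h), with ≥20 reads per time point. It is not background-subtracted; inactive controls average about 0.047.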
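Also: Bxb1 expression induced with 0.2% (w/v) L-rhamnose at OD600 near 0.5, cultures sampled hourly, flipped fraction per protease–substrate barcode pair counted by paired-end Illumina sequencing.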

## MGESLFKGPRDYNPISSSICHLTNESDGHTTSLYGIGFGPFIITNKHLFRRNNGTLVVQSLHGVFKVKDTTTLQQHLVDGRDMIIIRMPKDFPPFPQKLKFREPQREERICIVTTNFQTKSMSSMVSDTSCTFPSGDGIFWKHWIQTKDGQCGSPLVSTRDGFIVGIHSASNFTNTNNYFTSVPKNFMELLTNQEAQQWVSGWRLNADSVLWGGHKVFMVKPEEPFQPVKEATQL [L112I]
  area with substrate ENAYFQS: 0.0723
  area with substrate ENCYFQS: 0.0578
  area with substrate ENDYFQS: 0.0608
  area with substrate ENEYFQS: 0.0529
  area with substrate ENFYFQS: 0.0617
  area with substrate ENGYFQS: 0.0483
  area with substrate ENHYFQS: 0.0593
  area with substrate ENIYFQS: 0.104
  area with substrate ENKYFQS: 0.0701
  area with substrate ENMYFQS: 0.0635
  area with substrate ENNYFQS: 0.0586
  area with substrate ENPYFQS: 0.0578
  area with substrate ENQYFQS: 0.0698
  area with substrate ENRYFQS: 0.0816
  area with substrate ENSYFQS: 0.0754
  area with substrate ENVYFQS: 0.0658
  area with substrate ENYYFQS: 0.0487

## MGESLFKGPRDYNPISSSICHLTNESDGHTTSLYGIGFGPFIITNKHLFRRNNGTLVVQSLHGVFKVKDTTTLQQHLVDGRDMIIIRMPKDFPPFPQKLKFREPQREERICNVTTNFQTKSMSSMVSDTSCTFPSGDGIFWKHWIQTKDGQCGSPLVSTRDGFIVGIHSASNFTNTNNYFTSVPKNFMELLTNQEAQQWVSGWRLNADSVLWGGHKVFMVKPEEPFQPVKEATQL [L112N]
  area with substrate ENAYFQS: 0.0524
  area with substrate ENCYFQS: 0.0629
  area with substrate ENDYFQS: 0.057
  area with substrate ENEYFQS: 0.063
  area with substrate ENFYFQS: 0.0671
  area with substrate ENGYFQS: 0.061
  area with substrate ENIYFQS: 0.0903
  area with substrate ENKYFQS: 0.066
  area with substrate ENMYFQS: 0.0622
  area with substrate ENNYFQS: 0.0637
  area with substrate ENPYFQS: 0.0517
  area with substrate ENQYFQS: 0.0588
  area with substrate ENRYFQS: 0.0593
  area with substrate ENSYFQS: 0.0639
  area with substrate ENTYFQS: 0.0665
  area with substrate ENWYFQS: 0.0078
  area with substrate ENYYFQS: 0.0544

## MGESLFKGPRDYNPISSSICHLTNESDGHTTSLYGIGFGPFIITNKHLFRRNNGTLVVQSLHGVFKVKDTTTLQQHLVDGRDMIIIRMPKDFPPFPQKLKFREPQREERICQVTTNFQTKSMSSMVSDTSCTFPSGDGIFWKHWIQTKDGQCGSPLVSTRDGFIVGIHSASNFTNTNNYFTSVPKNFMELLTNQEAQQWVSGWRLNADSVLWGGHKVFMVKPEEPFQPVKEATQL [L112Q]
  area with substrate ENAYFQS: 0.0614
  area with substrate ENDYFQS: 0.0671
  area with substrate ENEYFQS: 0.0581
  area with substrate ENFYFQS: 0.0577
  area with substrate ENGYFQS: 0.057
  area with substrate ENHYFQS: 0.0642
  area with substrate ENIYFQS: 0.0827
  area with substrate ENPYFQS: 0.057
  area with substrate ENQYFQS: 0.0623
  area with substrate ENRYFQS: 0.0483
  area with substrate ENSYFQS: 0.0618
  area with substrate ENVYFQS: 0.0653

## MGESLFKGPRDYNPISSSICHLTNESDGHTTSLYGIGFGPFIITNKHLFRRNNGTLVVQSLHGVFKVKDTTTLQQHLVDGRDMIIIRMPKDFPPFPQKLKFREPQREERICSVTTNFQTKSMSSMVSDTSCTFPSGDGIFWKHWIQTKDGQCGSPLVSTRDGFIVGIHSASNFTNTNNYFTSVPKNFMELLTNQEAQQWVSGWRLNADSVLWGGHKVFMVKPEEPFQPVKEATQL [L112S]
  area with substrate ENAYFQS: 0.0509
  area with substrate ENCYFQS: 0.0452
  area with substrate ENDYFQS: 0.0668
  area with substrate ENIYFQS: 0.0599
  area with substrate ENKYFQS: 0.0818
  area with substrate ENMYFQS: 0.0634
  area with substrate ENNYFQS: 0.0681
  area with substrate ENPYFQS: 0.0692
  area with substrate ENQYFQS: 0.0603
  area with substrate ENRYFQS: 0.0701
  area with substrate ENSYFQS: 0.0802
  area with substrate ENWYFQS: 0.0479
  area with substrate ENYYFQS: 0.0723

## MGESLFKGPRDYNPISSSICHLTNESDGHTTSLYGIGFGPFIITNKHLFRRNNGTLVVQSLHGVFKVKDTTTLQQHLVDGRDMIIIRMPKDFPPFPQKLKFREPQREERICWVTTNFQTKSMSSMVSDTSCTFPSGDGIFWKHWIQTKDGQCGSPLVSTRDGFIVGIHSASNFTNTNNYFTSVPKNFMELLTNQEAQQWVSGWRLNADSVLWGGHKVFMVKPEEPFQPVKEATQL [L112W]
  area with substrate ENAYFQS: 0.058
  area with substrate ENCYFQS: 0.0604
  area with substrate ENDYFQS: 0.0604
  area with substrate ENEYFQS: 0.0593
  area with substrate ENFYFQS: 0.0566
  area with substrate ENHYFQS: 0.025
  area with substrate ENIYFQS: 0.068
  area with substrate ENKYFQS: 0.0469
  area with substrate ENMYFQS: 0.0619
  area with substrate ENNYFQS: 0.0685
  area with substrate ENPYFQS: 0.0462
  area with substrate ENQYFQS: 0.0596
  area with substrate ENRYFQS: 0.0592
  area with substrate ENSYFQS: 0.0583
  area with substrate ENVYFQS: 0.0684
  area with substrate ENYYFQS: 0.0512

## MGESLFKGPRDYNPISSSICHLTNESDGHTTSLYGIGFGPFIITNKHLFRRNNGTLVVQSLHGVFKVKDTTTLQQHLVDGRDMIIIRMPKDFPPFPQKLKFREPQREERICLVTTNFQTFSMSSMVSDTSCTFPSGDGIFWKHWIQTKDGQCGSPLVSTRDGFIVGIHSASNFTNTNNYFTSVPKNFMELLTNQEAQQWVSGWRLNADSVLWGGHKVFMVKPEEPFQPVKEATQL [K120F]
  area with substrate ENAYFQS: 0.052
  area with substrate ENCYFQS: 0.0651
  area with substrate ENDYFQS: 0.061
  area with substrate ENEYFQS: 0.065
  area with substrate ENFYFQS: 0.0688
  area with substrate ENGYFQS: 0.0695
  area with substrate ENIYFQS: 0.0963
  area with substrate ENKYFQS: 0.0605
  area with substrate ENPYFQS: 0.0539
  area with substrate ENQYFQS: 0.0668
  area with substrate ENSYFQS: 0.0598
  area with substrate ENTYFQS: 0.063
  area with substrate ENWYFQS: 0.0614
  area with substrate ENYYFQS: 0.0705

## MGESLFKGPRDYNPISSSICHLTNESDGHTTSLYGIGFGPFIITNKHLFRRNNGTLVVQSLHGVFKVKDTTTLQQHLVDGRDMIIIRMPKDFPPFPQKLKFREPQREERICLVTTNFQTGSMSSMVSDTSCTFPSGDGIFWKHWIQTKDGQCGSPLVSTRDGFIVGIHSASNFTNTNNYFTSVPKNFMELLTNQEAQQWVSGWRLNADSVLWGGHKVFMVKPEEPFQPVKEATQL [K120G]
  area with substrate ENAYFQS: 0.0804
  area with substrate ENCYFQS: 0.0683
  area with substrate ENEYFQS: 0.0699
  area with substrate ENFYFQS: 0.0609
  area with substrate ENGYFQS: 0.061
  area with substrate ENIYFQS: 0.101
  area with substrate ENMYFQS: 0.0854
  area with substrate ENNYFQS: 0.07
  area with substrate ENQYFQS: 0.0519
  area with substrate ENRYFQS: 0.0513
  area with substrate ENSYFQS: 0.0552
  area with substrate ENYYFQS: 0.0698

## MGESLFKGPRDYNPISSSICHLTNESDGHTTSLYGIGFGPFIITNKHLFRRNNGTLVVQSLHGVFKVKDTTTLQQHLVDGRDMIIIRMPKDFPPFPQKLKFREPQREERICLVTTNFQTHSMSSMVSDTSCTFPSGDGIFWKHWIQTKDGQCGSPLVSTRDGFIVGIHSASNFTNTNNYFTSVPKNFMELLTNQEAQQWVSGWRLNADSVLWGGHKVFMVKPEEPFQPVKEATQL [K120H]
  area with substrate ENAYFQS: 0.0435
  area with substrate ENCYFQS: 0.0528
  area with substrate ENDYFQS: 0.0448
  area with substrate ENEYFQS: 0.0662
  area with substrate ENFYFQS: 0.0415
  area with substrate ENHYFQS: 0.0577
  area with substrate ENIYFQS: 0.0147
  area with substrate ENNYFQS: 0.0642
  area with substrate ENQYFQS: 0.0496
  area with substrate ENRYFQS: 0.0419
  area with substrate ENSYFQS: 0.0463
  area with substrate ENTYFQS: 0.082

## MGESLFKGPRDYNPISSSICHLTNESDGHTTSLYGIGFGPFIITNKHLFRRNNGTLVVQSLHGVFKVKDTTTLQQHLVDGRDMIIIRMPKDFPPFPQKLKFREPQREERICLVTTNFQTPSMSSMVSDTSCTFPSGDGIFWKHWIQTKDGQCGSPLVSTRDGFIVGIHSASNFTNTNNYFTSVPKNFMELLTNQEAQQWVSGWRLNADSVLWGGHKVFMVKPEEPFQPVKEATQL [K120P]
  area with substrate ENAYFQS: 0.0591
  area with substrate ENDYFQS: 0.0527
  area with substrate ENGYFQS: 0.0604
  area with substrate ENHYFQS: 0.008
  area with substrate ENIYFQS: 0.106
  area with substrate ENKYFQS: 0.0517
  area with substrate ENPYFQS: 0.0454
  area with substrate ENQYFQS: 0.0514
  area with substrate ENSYFQS: 0.0527
  area with substrate ENTYFQS: 0.0554
  area with substrate ENVYFQS: 0.0752
